Consider 67 compounds from ChEMBL document CHEMBL5050857, “Mettl3 modulators” (2021).

For the assay, the target named is N6-adenosine-methyltransferase catalytic subunit (Homo sapiens, UniProt Q86U44). The assay can be described thus: Inhibition of METTL3 (unknown origin) using UCUGGACUAAA-biotin and 3H-SAM as substrates preincubated for 5 mins followed by substrate addition incubated for 30 mins by TopCount scintillation counting method.
UniProt Q86U44, sequence (Q86U44 whole entry): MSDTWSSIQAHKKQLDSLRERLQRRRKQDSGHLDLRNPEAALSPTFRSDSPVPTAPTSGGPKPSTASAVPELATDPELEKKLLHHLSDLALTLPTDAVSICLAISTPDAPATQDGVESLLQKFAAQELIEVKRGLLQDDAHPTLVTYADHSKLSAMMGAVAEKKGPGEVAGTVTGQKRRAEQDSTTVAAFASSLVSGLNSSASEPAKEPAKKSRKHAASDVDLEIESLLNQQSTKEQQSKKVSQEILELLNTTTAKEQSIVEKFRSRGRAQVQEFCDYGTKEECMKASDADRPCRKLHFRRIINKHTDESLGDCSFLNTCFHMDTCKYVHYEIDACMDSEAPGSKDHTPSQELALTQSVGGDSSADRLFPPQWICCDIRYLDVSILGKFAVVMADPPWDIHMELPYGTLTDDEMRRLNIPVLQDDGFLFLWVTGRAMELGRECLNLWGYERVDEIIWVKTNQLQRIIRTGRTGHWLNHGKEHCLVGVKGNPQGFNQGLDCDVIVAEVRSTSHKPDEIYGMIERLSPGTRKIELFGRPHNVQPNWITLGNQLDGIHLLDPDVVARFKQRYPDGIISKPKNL
Take `Nc1ncnc2c1ccn2[C@@H]1C[C@H](CCc2ccc3ccc(NCCO)nc3c2)[C@@H](O)[C@H]1O`: the IC50 is at most 1000 nM. With `Nc1ccc2ccc(CC[C@H]3C[C@@H](n4cc([C@H]5CCOC5)c5c(N)ncnc54)[C@H](O)[C@@H]3O)cc2n1` the figure was at most 1000 nM; with `Cn1ccc(-c2cn([C@H]3C[C@H](O)[C@@H](COc4ccc5ccc(N6CC(N)C6)nc5c4)O3)c3ncnc(N)c23)n1`, under 10 nM.

In the case of `Nc1ncnc2c1c(-c1cnccn1)cn2[C@@H]1O[C@H](COc2ccc3ccc(N4CCC4)nc3c2)[C@@H](O)[C@@H]1F`, the IC50 is under 10 nM. With `Nc1ncnc2c1ccn2[C@@H]1C[C@H](CCc2ccc3c(OCC4CC4)ccnc3c2)[C@@H](O)[C@H]1O` the figure was at least 1000 nM.

Compound `CNc1ncnc2c1ccn2[C@@H]1C[C@H](CCc2ccc3ccc(N)nc3c2)[C@@H](O)[C@H]1O` yielded a half-maximal inhibitory concentration (IC50) of at least 1000 nM.

The compound `CNc1nc2cc(OC[C@H]3O[C@@H](n4cc(-c5ccn(C)n5)c5c(N)ncnc54)[C@@H](F)[C@@H]3O)ccc2[nH]1` displayed a half-inhibitory concentration (IC50) of under 10 nM.

Compound `Nc1cc(OC[C@H]2O[C@@H](n3ccc4c(N)ncnc43)[C@@H](F)[C@@H]2O)ccc1C(=O)N1CCNCC1` registered an IC50 of at least 1000 nM. `CNc1ccc2ccc(OC[C@H]3O[C@@H](n4cc(Br)c5c(N)ncnc54)C[C@@H]3O)cc2n1` registered a half-maximal inhibitory concentration (IC50) of under 10 nM. With `Cn1ccc(-c2cn([C@@H]3O[C@H](COc4ccc5cnc(N[C@H]6C[C@@H](N)C6)nc5c4)[C@@H](O)[C@@H]3F)c3ncnc(N)c23)n1` the figure was at most 100 nM; with `Nc1cccc2ccc(CC[C@H]3C[C@@H](n4ccc5c(N)ncnc54)[C@H](O)[C@@H]3O)cc12`, at least 1000 nM; with `Nc1ncnc2c1c(-n1cccn1)cn2C1CC(COc2ccc3ccc(NC4CCC4)nc3c2)C(O)C1F` (configuration not stated), at most 1000 nM. With `Nc1ncnc2c1ccn2[C@@H]1C[C@H](CCc2ccc3cncnc3c2)[C@@H](O)[C@H]1O`, the IC50 is at least 1000 nM.

With `CC1(C)COC(c2cn([C@@H]3O[C@H](COc4ccc5ccc(N6CCC6)nc5c4)[C@@H](O)[C@@H]3F)c3ncnc(N)c23)=N1`, the IC50 was under 10 nM. Regarding `CCc1cc(N)c2ccc(OC[C@H]3O[C@@H](n4cc(-c5ccn(C)n5)c5c(N)ncnc54)[C@@H](F)[C@@H]3O)cc2n1`, the IC50 was under 10 nM.

The compound `Cn1ccc(-c2cn([C@@H]3O[C@H](CCC4CCNCC4)[C@@H](O)[C@@H]3F)c3ncnc(N)c23)n1` registered an IC50 of at most 100 nM. `CCCNc1ncnc2c1ccn2[C@@H]1C[C@H](CCc2ccc3ccc(N)nc3c2)[C@@H](O)[C@H]1O` had a 50% inhibitory concentration (IC50) of at least 1000 nM.

In the case of `Cc1cc2c(N)ncnc2n1[C@@H]1C[C@H](COc2ccc3ccc(N)nc3c2)[C@@H](O)[C@H]1O`, the half-inhibitory concentration (IC50) is at least 1000 nM. On to `Nc1ncnc2c1ccn2[C@@H]1C[C@H](CCc2cccnc2)[C@@H](O)[C@H]1O`, for which the half-maximal inhibitory concentration (IC50) is at least 1000 nM. With `Nc1ccc2ccc(OC[C@H]3C[C@@H](n4ccc5c(N)ncnc54)[C@H](O)[C@@H]3O)cc2n1` the figure was at most 1000 nM; with `Cn1ccc(-c2cn([C@@H]3O[C@H](COc4ccc5cnc(NC6C7CC6C7)nc5c4)[C@@H](O)[C@@H]3F)c3ncnc(N)c23)n1` (some centres not stated), under 10 nM; with `Cc1cc2c(N)ncnc2n1[C@@H]1C[C@H](CCc2ccc3nc(N)ccc3c2)[C@@H](O)[C@H]1O`, at least 1000 nM. The compound `CN(C[C@H]1C[C@@H](n2ccc3c(N)ncnc32)[C@H](O)[C@@H]1O)c1ccc2ccc(N)nc2c1` yielded a half-maximal inhibitory concentration (IC50) of at least 1000 nM.

`Cn1cc(-c2cn([C@@H]3C[C@H](CCc4ccc5ccc(N)nc5c4)[C@@H](O)[C@H]3O)c3ncnc(N)c23)cn1` gave an IC50 of at most 1000 nM. On to `Cc1cc2c(N)ncnc2n1[C@@H]1C[C@H](CCc2ccc3ccc(N)nc3c2)[C@@H](O)[C@H]1O`, for which the half-maximal inhibitory concentration (IC50) is at least 1000 nM. With `Cn1ccc(-c2cn([C@@H]3O[C@H](COc4ccc5cnc(NC6CC6)nc5c4)[C@@H](O)[C@@H]3F)c3ncnc(N)c23)n1` the figure was at most 100 nM. Consider `Nc1ncnc2c1ccn2[C@@H]1O[C@H](COc2ccc3ccc(NC4CCC4)nc3c2)[C@@H](O)[C@@H]1F`, for which the half-inhibitory concentration (IC50) is under 10 nM.

`Nc1ncnc2c1ccn2[C@@H]1C[C@H](CCc2ccc3scnc3c2)[C@@H](O)[C@H]1O` registered a half-maximal inhibitory concentration (IC50) of at least 1000 nM. As to `Nc1ccc2ccc(CC[C@H]3C[C@@H](n4ccc5c(N)ncnc54)[C@H](O)[C@@H]3O)cc2c1`, the IC50 is at least 1000 nM. The compound `CCNc1ccc2ccc(CC[C@H]3C[C@@H](n4cc(-n5cccn5)c5c(N)ncnc54)C[C@@H]3O)cc2n1` showed a concentration for half-maximal inhibition (IC50) of under 10 nM.

In turn, `CNc1ccc2cc(F)c(CC[C@H]3C[C@@H](n4ccc5c(N)ncnc54)[C@H](O)[C@@H]3O)cc2n1` yielded an IC50 of at most 100 nM. Regarding `CN(C)Cc1cn([C@@H]2O[C@H](COc3ccc4ccc(N5CCC5)nc4c3)[C@@H](O)[C@@H]2F)c2ncnc(N)c12`, the half-inhibitory concentration (IC50) is under 10 nM.

Turning to `CN(c1ncc2ccc(OC[C@H]3O[C@@H](n4cc(-c5ccn(C)n5)c5c(N)ncnc54)[C@@H](F)[C@@H]3O)cc2n1)C1CCC1`, the half-inhibitory concentration (IC50) is under 10 nM. With `O[C@@H]1[C@@H](CCc2ccc3[nH]ncc3c2)C[C@@H](n2ccc3c(NCCc4ccccc4)ncnc32)[C@@H]1O`, the half-inhibitory concentration (IC50) is at least 1000 nM. `COc1cccc(CC[C@H]2C[C@@H](n3ccc4c(N)ncnc43)[C@H](O)[C@@H]2O)n1`: the half-inhibitory concentration (IC50) is at least 1000 nM. `Nc1ncnc2c1ccn2[C@@H]1O[C@H](COc2ccc3cnc(N[C@H]4C[C@@H](N)C4)nc3c2)[C@@H](O)[C@@H]1F` displayed an IC50 of at most 1000 nM. Compound `NC(=O)Nc1cccc(CC[C@H]2C[C@@H](n3ccc4c(N)ncnc43)[C@H](O)[C@@H]2O)c1` showed an IC50 of at least 1000 nM. With `Nc1ccc2ccc(CC[C@H]3C[C@@H](n4ccc5c(N)ncnc54)[C@H](O)[C@@H]3O)cc2n1`, the half-maximal inhibitory concentration (IC50) was at most 1000 nM. As for `Nc1ncnc2c1ccn2[C@@H]1C[C@H](CCc2ccc3[nH]c(=O)[nH]c3c2)[C@@H](O)[C@H]1O`, the IC50 is at least 1000 nM. Compound `Nc1ncnc2c1ccn2[C@@H]1C[C@H](CCc2cccc(=O)[nH]2)[C@@H](O)[C@H]1O` returned an IC50 of at least 1000 nM. In turn, `Nc1cc2cc(CC[C@H]3C[C@@H](n4ccc5c(N)ncnc54)[C@H](O)[C@@H]3O)ccc2cn1` showed an IC50 of at least 1000 nM.

For the compound `Nc1ncnc2c1ccn2[C@@H]1C[C@H](CCc2ccc3cccnc3n2)[C@@H](O)[C@H]1O`, the IC50 was at least 1000 nM.

Compound `Nc1ccc2ccc(NC[C@H]3C[C@@H](n4ccc5c(N)ncnc54)[C@H](O)[C@@H]3O)cc2n1` had an IC50 of at least 1000 nM. For `CNc1ccc2ccc(OC[C@H]3O[C@@H](n4cc(-c5cc(C)n(C)n5)c5c(N)ncnc54)[C@@H](F)[C@@H]3O)cc2n1`, the IC50 was at most 100 nM. For the compound `CNC(=O)Nc1cccc(CC[C@H]2C[C@@H](n3ccc4c(N)ncnc43)[C@H](O)[C@@H]2O)c1`, the IC50 is at least 1000 nM. In turn, `CCCc1cn([C@@H]2C[C@H](CCc3ccc4ccc(N)nc4c3)[C@@H](O)[C@H]2O)c2ncnc(N)c12` gave a half-maximal inhibitory concentration (IC50) of at most 1000 nM. Then `Nc1ncnc2c1ccn2[C@@H]1C[C@H](CCc2ccc3ccc(Nc4ccccc4)nc3c2)[C@@H](O)[C@H]1O`, with at least 1000 nM; and `CNc1nc2cc(CC[C@H]3O[C@@H](n4cc(-n5cccn5)c5c(N)ncnc54)[C@@H](F)[C@@H]3O)ccc2s1`, with at most 1000 nM. Regarding `Nc1ncnc2c1ccn2[C@@H]1C[C@H](CCc2ccc3cn[nH]c3c2)[C@@H](O)[C@H]1O`, the half-inhibitory concentration (IC50) is at least 1000 nM. As for `Nc1ccc2ccc(OC[C@H]3O[C@@H](n4ccc5c(NCCc6ccccc6)ncnc54)[C@H](O)[C@@H]3O)cc2n1`, the IC50 was at most 1000 nM. Compound `CCc1nc2cc(OC[C@H]3O[C@@H](n4cc(-c5ccn(C)n5)c5c(N)ncnc54)[C@@H](F)[C@@H]3O)ccc2o1` yielded an IC50 of at least 1000 nM. With `Cn1ccc(-c2cn([C@H]3C[C@H](O)[C@@H](CCc4ccc5ccc(N6CCC6)nc5c4)O3)c3ncnc(N)c23)n1` the figure was under 10 nM; with `Cc1ccn(-c2cn([C@@H]3O[C@H](COc4ccc5ccc(N6CC(O)C6)nc5c4)[C@@H](O)[C@@H]3F)c3ncnc(N)c23)n1`, under 10 nM. For `Nc1ncnc2c1ccn2[C@@H]1C[C@H](CCc2ccc3ccc(NCc4ccccc4)nc3c2)[C@@H](O)[C@H]1O`, the IC50 is at most 1000 nM.

Turning to `CC(C)Nc1ccc2ccc(CC[C@H]3C[C@@H](n4ccc5c(N)ncnc54)[C@H](O)[C@@H]3O)cc2n1`, the IC50 was at most 100 nM. Take `Nc1ncnc2c1ccn2[C@@H]1C[C@H](CCc2ccc3c(OCc4ccccc4)ccnc3c2)[C@@H](O)[C@H]1O`: the IC50 is at least 1000 nM.

On to `Nc1ncnc2c1ccn2[C@@H]1C[C@H](CCc2ccc3cc[nH]c3c2)[C@@H](O)[C@H]1O`, for which the IC50 is at least 1000 nM. With `Cc1cn([C@@H]2O[C@H](COc3ccc4ccc(N)nc4c3)[C@@H](O)[C@H]2O)c2ncnc(N)c12` the figure was at least 1000 nM; with `Nc1ncnc2c1ccn2[C@@H]1C[C@H](CCc2ccc3[nH]ccc3c2)[C@@H](O)[C@H]1O`, at least 1000 nM. The compound `Cc1nc(N)c2ccn([C@@H]3C[C@H](CCc4ccc5ccc(N)nc5c4)[C@@H](O)[C@H]3O)c2n1` gave an IC50 of at least 1000 nM.

The compound `Nc1ccc2ccc(CO[C@H]3C[C@@H](n4ccc5c(N)ncnc54)[C@H](O)[C@@H]3O)cc2n1` yielded a half-maximal inhibitory concentration (IC50) of under 10 nM. The compound `Nc1ccc2ccc(OC[C@H]3O[C@H](n4ccc5c(N)ncnc54)[C@H](O)[C@@H]3O)cc2n1` showed an IC50 of at least 1000 nM. Regarding `CNc1ccc2ccc(OC[C@H]3O[C@@H](n4cc(C)c5c(N)ncnc54)[C@H](O)[C@@H]3O)cc2n1`, the 50% inhibitory concentration (IC50) was at least 1000 nM. Then `CNc1ccc2ccc(OC[C@H]3O[C@@H](n4cc(C5CCC(F)(F)CC5)c5c(N)ncnc54)[C@H](O)[C@@H]3O)cc2n1`, with under 10 nM. For `Cn1ccc(-c2cn([C@@H]3O[C@H](COc4ccc5cnc(C(=O)N6CCC6)nc5c4)[C@@H](O)[C@@H]3F)c3ncnc(N)c23)n1`, the concentration for half-maximal inhibition (IC50) was at least 1000 nM. As for `Nc1ccc2ccc(OC[C@H]3O[C@@H](n4ccc5c(N)ncnc54)[C@H](O)[C@@H]3O)cc2n1`, the IC50 was at most 100 nM. `CNc1ccc2cc(CC[C@H]3C[C@@H](n4cc(C)c5c(N)ncnc54)[C@H](O)[C@@H]3O)ccc2n1` returned a half-inhibitory concentration (IC50) of at most 1000 nM.

One may read the IC50 as the concentration that inhibits the measured activity by half. A lower IC50 goes with inhibition by little substance.
